Source: article PMC12040169 (PLOS Biology, 2025)
The list shows a part of the results.

Tested on: T1, C. trachomatis L2/434/Bu expressing GFP (CTL2-GFP)
T1 construct: L2/434/Bu GFP intracellular growth in HeLa cells
Set-up: species or system HeLa; C. trachomatis total inclusion area by high-content imaging, normalised to DMSO
Details: total inclusion area; 28.5 h, 10 µM; inhibitor
Outline: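 Post-fluorescence-read fixation, DNA staining with Hoechst and high-content imaging; GFP inclusion area and number per well, and nuclei counts, used as proxies for bacterial growth and host viability.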

| SMILES | % of control remaining |
| --- | --- |
| CCOC(=O)c1cn(CC2CC2)c2cc(F)c(F)cc2c1=O [CBK304195] | 50.8899 |
| O=C(Nc1cccc(-c2nnn[nH]2)c1)Nc1ccc(Cl)c(Cl)c1 [CBK155454] | 101.174 |
| CC(C)CC(CO)Nc1ncnc2ccc(S(C)(=O)=O)cc12 (stereo not shown) [CBK304203] | 67.6459 |
| CCc1nc2ccc(C(=O)N(C)Cc3ccco3)cn2c1N(C)Cc1cccs1 [CBK145552] | 128.717 |
| Cc1cc(C(=O)Nc2ccc3ncccc3c2)ccc1Cl [CBK159804] | 97.8243 |
| O=C(c1c[nH]c(C(=O)N2CCN(c3ncccn3)CC2)c1)c1ccc(Cl)cc1Cl [CBK107418] | 86.6987 |
| COc1ccc(C2(CNC(=O)C(O)COc3ccccc3)CCCC2)cc1OC (stereo not shown) [CBK014053] | 61.5199 |
| COc1ccc(S(=O)(=O)N2Cc3ccccc3CC2C(=O)Nc2sc3c(c2C#N)CCCC3)cc1 (stereo not shown) [CBK266363] | 89.016 |
| CCCn1c(SCC(=O)N2CCOCC2)nc2ccc(Br)cc2c1=O [CBK305929] | 92.7247 |
| CC(=O)c1cccc(NC(=O)CN2CCCC2c2cccs2)c1 (stereo not shown) [CBK305143] | 48.3783 |
| Cc1cn(S(=O)(=O)c2ccc(Br)cc2)cn1 [CBK026488] | 73.8571 |
| Nc1cc(O)nc(SCCN2CCN(c3ccc(C(F)(F)F)cc3[N+](=O)[O-])CC2)n1 [CBK265225] | 101.354 |
| COc1ccc2c(c1)CCN=C2C[C@H]1CN(C(=O)C2CC2)CC[C@H]1CC(=O)O [CBK289154] | 96.6233 |
| Cc1ccc(-c2nc(C3CCN(C(=O)NC(C)C)CC3)n3ccccc23)cc1 [CBK046861] | 99.8199 |
| O=C(Nc1cccc2ccccc12)/C(=C\c1ccco1)NC(=O)c1ccc(Br)cc1 [CBK264587] | 100.925 |
| C[C@@H]1c2c(C(=O)OC(C)(C)C)ncn2-c2ccc(F)cc2N1CC(=O)N1CCCC1 [CBK016704] | 125.131 |
| c1ccc2oc(-c3cncc(NCCc4c[nH]c5ccccc45)n3)cc2c1 [CBK066068] | 103.18 |
| CCN1CCC[C@@H]1CNC(=O)c1cc(Cl)nc(OC)c1 [CBK174692] | 36.4925 |
| O=C1c2ccccc2C(=O)N1c1ccc2nc(SCc3nc4ccccc4[nH]3)sc2c1 [CBK263368] | 81.1482 |
| CC(C)C(=O)N1C[C@H]2CCc3nnc(-c4ccccc4)n3[C@H]2C1 [CBK283438] | 99.4645 |
| CN1CCOc2cc(S(=O)(=O)Nc3nnn[nH]3)ccc21 [CBK062389] | 81.8347 |
| CCS(=O)(=O)CCNC(=O)c1cnc(N2CCCCC2)nc1C [CBK307715] | 67.8576 |
| Cc1[nH]c2c(C)cccc2c1CC(=O)N(C)CCN(C)C [CBK282724] | 97.5473 |
| O=C(O)c1ccc(Cl)c(S(=O)(=O)N2CCCC2C(=O)O)c1 (stereo not shown) [CBK265733] | 113.558 |
| Cn1c(=O)n(CC(=O)Nc2ccc(F)cc2)c2cccnc21 [CBK283919] | 57.381 |
| Cc1ccc(Cl)c(OC(C)C(=O)N2CCCC(C(N)=O)C2)c1 (stereo not shown) [CBK304936] | 34.0789 |
| CN1CCC(N2CCN(C(=O)NCC3COc4ccccc4O3)CC2)CC1 (stereo not shown) [CBK155881] | 81.0297 |

| SMILES | % of control remaining |
| --- | --- |
| O=C(NCCN1CCOCC1)c1cc(-c2cccc(Br)c2)nc2ccccc12 [CBK263625] | 105.429 |
| NC(=O)C1(N2CCCCC2)CCN(C(=O)CCCC(=O)O)CC1 [CBK286575] | 65.2049 |
| O=[N+]([O-])c1ccc(Cl)cc1N/N=C1\CN2CCC1CC2 [CBK217272] | 90.1692 |
| COc1ccc(-c2nc3ccccn3c2CN2CCC(C(=O)O)CC2)cc1 [CBK287052] | 105.033 |
| O=C(CSc1ncn(-c2ccccc2)n1)Nc1ccc2[nH]c(=O)[nH]c2c1 [CBK268212] | 100.296 |
| CCNC(=S)N[C@@H]1CC[C@@]2(c3ccc([N+](=O)[O-])cc3)CCN(CCc3ccccc3)[C@H]2C1 [CBK004677] | 90.3257 |
| Cc1ccc(-c2ccccc2)n1-c1ccc(O)c(C(=O)O)c1 [CBK116375] | 111.838 |
| Nc1nonc1-c1nc2ccccc2n1CC(=O)NCc1ccccc1 [CBK264711] | 116.564 |
| COc1ccccc1OCCCN1C(=O)C2(CC(=O)N(C)C2=O)c2cc(F)ccc21 (stereo not shown) [CBK075430] | 87.3023 |
| CCc1nn2c(C3CCNCC3)ccnc2c1-c1cccs1 [CBK284226] | 52.7547 |
| O=S(=O)(Nc1ccccc1O)c1ccc(OC(F)(F)F)cc1 [CBK043512] | 86.9162 |
| Cc1nc2sc3c(c2c2nc(CCC(=O)O)nn12)CC(C)(C)OC3 [CBK269168] | 117.055 |
| COc1ncc(-c2nccnc2NCc2ccc(F)cc2)c(OC)n1 [CBK037668] | 157.426 |
| CC(C)(C)C(=O)Nc1ccc(F)c(C(=O)N2CCc3[nH]ncc3C2)c1 [CBK305303] | 73.5138 |
| CCC(=O)N1CCCCC1c1nn(C)cc1-c1onc(C)c1C (stereo not shown) [CBK283411] | 114.684 |
| Cc1c(C(=O)N(C)Cc2nc(C(F)(F)F)cs2)nnn1C1CCNCC1 [CBK304315C] | 38.7514 |
| Cc1c(CNC2(c3ccccc3F)CCCC2)c(=O)n(C)c(=O)n1C [CBK282986] | 119.768 |
| CS(=O)(=O)c1ccc(CN2C[C@@H]3OCC(=O)N(Cc4ccc(F)cc4)[C@@H]3C2)cc1 [CBK289690] | 119.181 |
| Cc1cc(C[C@@H]2COC[C@H]2NCc2cccc(Cl)c2)on1 [CBK284885] | 121.97 |
| CC(C)NC(=O)N[C@H]1CCN2C(=O)N(c3cccc4nsnc34)C(=O)[C@@H]2C1 [CBK289539] | 82.8343 |
| CN1C[C@@H](C(=O)NC(C)(C)C)[C@@]2(CCc3ccccc3C(=O)N2)C1 [CBK284796] | 123.374 |
| CCn1ncc(CN2CCCCCC2c2cc(C)no2)c1C (stereo not shown) [CBK283008] | 113.483 |
| CN1C(=O)[C@@H](OC(=O)c2cccnc2)C[C@H]1c1ccc(F)cc1 [CBK283649] | 101.004 |
| CCNC(=O)NC[C@H]1C[C@@H]2CCN1C[C@@H]2c1cc(C2CCCC2)nc(C)n1 [CBK289122] | 102.529 |
| CC[C@H]1CN(C(C)=O)CC[C@H]1CC(=O)NCc1ccc2c(c1)OCO2 [CBK289131] | 117.851 |
| CCc1noc(C)c1C(=O)Nc1ncc(C)s1 [CBK288244] | 104.249 |
| COC(=O)c1ncn(CC(=O)N2CCCCCC2)n1 [CBK305184] | 69.5292 |

| SMILES | % of control remaining |
| --- | --- |
| CC(=O)c1cccc(NC(=O)CCCn2cc([N+](=O)[O-])cn2)c1 [CBK268911] | 97.8785 |
| Cc1cc(Cl)c(S(=O)(=O)Nc2ccon2)cc1OCC(=O)NC1CCCCC1 [CBK266785] | 86.1971 |
| CCOC(=O)NC(=O)Nc1cc2ccccc2c(Br)n1 [CBK063282] | 0.08094 |
| COc1cc(CNC(=O)C(C)SCc2ccccc2)ccn1 (stereo not shown) [CBK298331] | 133.797 |
| OCC1CCCN1c1nccnc1-c1cccc(O)c1 (stereo not shown) [CBK089052] | 85.1526 |
| CSCCCNC(=O)c1cncc(-c2ccc(C(=O)N3CCOCC3)cc2)c1 [CBK158610] | 9.274 |
| Oc1ccccc1Sc1cnccn1 [CBK085840] | 96.0048 |
| Cc1ccc(S(N)(=O)=O)cc1NC(=O)c1ccco1 [CBK004204] | 83.5795 |
| COc1cccc2sc(NC(=O)Cc3ccccc3)nc12 [CBK149284] | 88.6799 |
| Cn1c(-c2nonc2N)nc2ccccc21 [CBK062642] | 70.7396 |
| c1ccc(Oc2ccc(Nc3cc(-c4ccc(N5CCOCC5)cc4)ncn3)cc2)cc1 [CBK090923] | 81.5047 |
| N=C1OC2CSCC2N1C(=O)Cc1c(F)cccc1Cl (stereo not shown) [CBK284517] | 70.3446 |
| O=S(=O)(Nc1nccnc1-c1ccc2c(c1)OCO2)c1ccc(Cl)cc1 [CBK050952] | 82.5982 |
| Cc1ccc(C(C)C)c(OCC(=O)Nc2cc(-c3nc4ccccc4[nH]3)ccc2C)c1 [CBK268724] | 86.6574 |
| CC(C)(C)C(=O)Nc1nnc(SCC(=O)N2CCc3ccccc32)s1 [CBK004889] | 100.728 |
| Cc1cc2c(o1)c1cnn(CC(=O)N3CCCC3)c(=O)c1n2C(C)C [CBK284232] | 87.8886 |
| O=c1cnnc(Nc2cccc(Cl)c2Cl)[nH]1 [CBK287897] | 81.9979 |
| COc1cnc(-c2cnn(C)c2)c(NC(=O)Cc2ccccc2)n1 [CBK145327] | 77.5714 |
| NC(=O)c1c(NC(=S)NC(NC(=O)c2ccccc2)C(Cl)(Cl)Cl)sc2c1CCCC2 (stereo not shown) [CBK261048] | 75.471 |
| CCOc1ccc(-c2nn(-c3ccccc3)cc2/C=C2\SC(=S)N(CC(=O)O)C2=O)cc1F [CBK265647] | 115.125 |
| O=C(c1cnn2cccnc12)N1CCc2[nH]c3ccccc3c2C1 [CBK281874] | 72.9568 |
| CCOC(=O)N1CCC(NS(=O)(=O)c2c(C)noc2C)CC1 [CBK045465] | 88.156 |
| CC(C)n1c(COc2ccc(OC(F)(F)F)cc2)n[nH]c1=S [CBK012989] | 74.3835 |
| O=C(O)c1ccc(S(=O)(=O)NCc2ccc3c(c2)OCO3)cc1 [CBK262360] | 105.985 |
| Cc1cc(C(=O)NCCc2ccc(S(N)(=O)=O)cc2)no1 [CBK268130] | 97.6258 |
